Laboratory results: the supplement of paper PMC3334620
Whole data set: some 33,000 sequences, median “E-score (-0.5 to 0.5)” near -0.036, cut for the highest 2% near 0.37. The list shows a part of the results.

Each sequence was assayed against T1, Yer064c (UniProt P40041) (assay: PBM E-score (8-mer binding enrichment) (E-score (-0.5 to 0.5)); higher = stronger / more preferred TF binding; most listed sequences are background and not binding sites). Details: protein concentration: 200 nM; construct: GST-full length.
T1 sequence: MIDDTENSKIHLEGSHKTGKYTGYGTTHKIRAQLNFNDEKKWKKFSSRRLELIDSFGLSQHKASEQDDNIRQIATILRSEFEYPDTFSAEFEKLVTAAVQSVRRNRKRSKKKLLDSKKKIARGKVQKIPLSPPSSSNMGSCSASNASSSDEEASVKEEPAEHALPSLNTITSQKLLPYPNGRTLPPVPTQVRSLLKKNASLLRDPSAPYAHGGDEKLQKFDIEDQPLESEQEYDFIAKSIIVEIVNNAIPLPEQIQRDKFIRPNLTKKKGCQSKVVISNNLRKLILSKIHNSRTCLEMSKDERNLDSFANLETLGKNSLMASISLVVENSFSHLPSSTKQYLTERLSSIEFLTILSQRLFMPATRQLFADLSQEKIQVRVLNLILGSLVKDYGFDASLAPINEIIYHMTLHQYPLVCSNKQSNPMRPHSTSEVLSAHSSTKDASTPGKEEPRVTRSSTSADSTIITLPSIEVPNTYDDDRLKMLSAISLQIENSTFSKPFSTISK
How it was run: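 Masliner-normalised scans of fluorescent anti-GST signal were the basis for scoring. That signal came from GST-tagged yeast transcription factors applied at about 100-200 nM to double-stranded universal all-10-mer Agilent arrays on fresh or once-stripped slides. Each ungapped eight-base word, pooled with its reverse complement, received an E-score from the Universal PBM Analysis Suite.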

Sequence | PBM E-score
AAGGGAAG | 0.0707
AACCGGGA | -0.00991
CAGCAGGA | -0.0802
GAACACAC | 0.0728
CAAATCCG | -0.213
CAATGGTC | 0.183
AAGGTGTA | 0.00153
CACTGCCA | 0.00516
ACTGGCTG | -0.0516
GCGACTAC | 0.391
ACAACTCC | -0.2
AAAGCATT | -0.01
CCATGCAA | -0.173
AACCCAGT | -0.0689
GGGGGACC | -0.263
CGATCTAA | 0.0729
CTATACGC | 0.0177
CTGCTTCC | -0.371
AGAAGTTC | -0.0131
CAGTCCCA | 0.134
AATGCTCC | -0.257
CAACCTAG | -0.104

Sequence | PBM E-score
AGCCTGGG | -0.158
GTCGAAAA | -0.00581
ATAATGGC | -0.0632
ATCCGGGG | -0.0717
TAAAACTA | 4e-05
AATTAACA | 0.109
TGGCGACA | -0.0682
AGCTGTGA | 0.128
CTTTAGTA | 0.14
AGAATGAT | 0.225
CAATAGTA | -0.0839
AAGTACTC | 0.282
GTTCGTAA | 0.054
GTTGTCCA | 0.0202
AAATCCAG | -0.0728
ACGCTTAT | -0.0958
GACCAGGC | -0.197
AGAGACAG | -0.0696
GTGCAGAA | -0.117
AGATTAGC | 0.123
CTAGGATC | -0.157
ATTTGGAA | 0.00722

Sequence | PBM E-score
TAATTCCA | -0.0152
AAGGTCAA | -0.0628
AACTCCAC | -0.115
GCAGAGCA | -0.173
CTTGCGAC | 0.158
ATAGGGTA | -0.0458
GAGTCCTA | 0.399
ATCGAGCC | 0.0378
CGGCCCCA | -0.261
GCTTAACA | -0.0624
CATGCATA | 0.00799
TGAAGGCA | -0.0731
CTCACATA | 0.116
TAGTGGAA | -0.27
TCGGTGCA | -0.151
CCGGCAGA | -0.182
CGGCGATC | -0.0422
GCGCCGGA | -0.233
CGGTCCTC | -0.258
CAGGTGAC | 0.352
GGTCATGA | 0.255
CGAAACTA | 0.0571

Sequence | PBM E-score
CCTCGCGC | -0.0733
AGTGCAAT | 0.04
ATCTATGA | 0.215
AGGCCCCG | -0.286
ATCTAGAG | 0.168
CGATTTGC | -0.0666
ATACCTGA | 0.135
CTCATAAA | 0.328
CCTAGACA | -0.0478
AGAGCTCA | -0.0599
ACCTCATA | 0.0846
ATGTGTAG | 0.18
GCGATCGC | -0.34
GGAGGTAA | -0.041
CTCGTGTA | 0.079
GGCTTGAC | 0.0998
ACAATGAA | 0.144
AGCCGGTA | -0.232
CGCTGTGA | 0.102
CCCCCCAG | -0.222
